These are yes or no findings as the source states them, for the method shown. Binding seen in cells or lysates may run through a third protein. Some entries that bind do so weakly or less than the wild type. Where a sequence is shown, tags or fusion partners need not be part of it.

Sequences of proteins named here, by UniProt entry; tags and fusion partners are left off.
UniProt Q9Z148: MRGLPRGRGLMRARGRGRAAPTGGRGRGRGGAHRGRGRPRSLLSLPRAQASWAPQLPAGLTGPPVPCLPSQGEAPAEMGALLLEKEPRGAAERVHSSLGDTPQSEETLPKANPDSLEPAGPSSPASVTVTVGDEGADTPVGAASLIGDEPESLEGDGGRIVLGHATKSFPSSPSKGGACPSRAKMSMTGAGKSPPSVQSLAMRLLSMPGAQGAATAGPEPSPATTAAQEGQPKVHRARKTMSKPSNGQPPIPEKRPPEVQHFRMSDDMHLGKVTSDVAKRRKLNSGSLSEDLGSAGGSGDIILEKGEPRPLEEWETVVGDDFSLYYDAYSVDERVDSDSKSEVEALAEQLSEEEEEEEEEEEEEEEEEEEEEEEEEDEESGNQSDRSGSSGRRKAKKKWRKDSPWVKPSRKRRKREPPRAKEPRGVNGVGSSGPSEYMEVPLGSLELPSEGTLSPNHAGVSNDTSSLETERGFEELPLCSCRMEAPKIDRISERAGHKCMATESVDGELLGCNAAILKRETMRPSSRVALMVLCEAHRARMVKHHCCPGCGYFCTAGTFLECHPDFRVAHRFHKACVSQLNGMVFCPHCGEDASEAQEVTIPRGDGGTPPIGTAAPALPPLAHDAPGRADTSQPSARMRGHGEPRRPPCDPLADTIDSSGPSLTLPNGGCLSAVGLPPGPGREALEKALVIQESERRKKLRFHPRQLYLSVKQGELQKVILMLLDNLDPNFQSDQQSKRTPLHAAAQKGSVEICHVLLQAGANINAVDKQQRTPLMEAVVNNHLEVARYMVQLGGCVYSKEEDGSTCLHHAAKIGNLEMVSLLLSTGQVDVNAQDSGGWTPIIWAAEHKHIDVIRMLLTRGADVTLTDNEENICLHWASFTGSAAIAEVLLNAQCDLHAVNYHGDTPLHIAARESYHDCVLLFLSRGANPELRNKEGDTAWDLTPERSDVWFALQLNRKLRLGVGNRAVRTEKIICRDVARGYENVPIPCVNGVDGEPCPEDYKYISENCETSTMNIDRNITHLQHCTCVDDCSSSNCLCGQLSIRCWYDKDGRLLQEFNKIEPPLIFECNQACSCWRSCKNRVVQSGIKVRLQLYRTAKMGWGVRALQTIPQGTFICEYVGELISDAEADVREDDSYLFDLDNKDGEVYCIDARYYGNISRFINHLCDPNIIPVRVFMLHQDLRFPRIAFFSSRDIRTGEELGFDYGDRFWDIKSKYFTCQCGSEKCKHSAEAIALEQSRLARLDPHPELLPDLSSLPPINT

For test [1], the target named is T1, 3xFLAG-tagged ATF7IP K16R mutant (expressed in HEK293T cells) (mouse) (UniProt Q7TT18).
T1 sequence: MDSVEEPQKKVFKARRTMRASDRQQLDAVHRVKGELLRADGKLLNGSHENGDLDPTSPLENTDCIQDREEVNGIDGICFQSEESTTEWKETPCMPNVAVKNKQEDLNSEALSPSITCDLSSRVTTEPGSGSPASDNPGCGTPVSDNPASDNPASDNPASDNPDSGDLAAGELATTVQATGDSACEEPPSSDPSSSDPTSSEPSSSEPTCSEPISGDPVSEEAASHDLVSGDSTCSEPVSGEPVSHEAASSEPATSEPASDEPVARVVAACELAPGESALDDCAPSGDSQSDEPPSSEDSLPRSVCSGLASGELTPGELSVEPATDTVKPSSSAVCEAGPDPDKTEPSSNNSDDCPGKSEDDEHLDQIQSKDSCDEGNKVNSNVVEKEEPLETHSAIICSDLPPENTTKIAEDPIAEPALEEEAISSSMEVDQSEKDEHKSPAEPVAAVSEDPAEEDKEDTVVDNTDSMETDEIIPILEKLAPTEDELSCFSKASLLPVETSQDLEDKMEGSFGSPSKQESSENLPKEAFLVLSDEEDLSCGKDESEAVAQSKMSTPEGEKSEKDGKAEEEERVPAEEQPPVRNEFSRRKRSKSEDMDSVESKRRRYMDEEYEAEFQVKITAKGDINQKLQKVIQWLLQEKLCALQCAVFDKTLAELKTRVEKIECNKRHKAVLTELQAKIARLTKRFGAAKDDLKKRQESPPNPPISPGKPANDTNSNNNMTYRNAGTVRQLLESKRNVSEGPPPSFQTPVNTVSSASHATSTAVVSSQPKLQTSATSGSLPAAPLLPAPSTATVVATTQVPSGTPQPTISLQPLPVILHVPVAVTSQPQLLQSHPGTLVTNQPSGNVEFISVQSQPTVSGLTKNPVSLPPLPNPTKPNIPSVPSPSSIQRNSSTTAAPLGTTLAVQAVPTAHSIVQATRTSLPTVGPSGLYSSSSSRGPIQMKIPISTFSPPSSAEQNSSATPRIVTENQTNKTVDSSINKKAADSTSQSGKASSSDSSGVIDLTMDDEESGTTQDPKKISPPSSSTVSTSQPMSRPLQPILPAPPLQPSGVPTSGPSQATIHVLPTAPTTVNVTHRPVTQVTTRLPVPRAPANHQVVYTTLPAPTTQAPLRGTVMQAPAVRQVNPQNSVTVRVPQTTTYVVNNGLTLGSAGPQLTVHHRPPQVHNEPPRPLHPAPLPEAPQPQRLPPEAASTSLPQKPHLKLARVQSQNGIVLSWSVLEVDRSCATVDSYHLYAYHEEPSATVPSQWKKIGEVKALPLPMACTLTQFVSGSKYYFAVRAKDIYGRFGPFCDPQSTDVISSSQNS
Put plainly: co-IP; HEK293T cells co-transfected with G9a or GLP plus 3xFLAG-ATF7IP WT, K16R or Δ(1–16); anti-FLAG M2 agarose; western blot. Background: A western blot detects proteins with antibodies after separation by electrophoresis.

The target in test [2] is T2, 3xFLAG-tagged ATF7IP Δ(1–16) mutant (expressed in HEK293T cells) (mouse) (UniProt Q7TT18).
T2 sequence: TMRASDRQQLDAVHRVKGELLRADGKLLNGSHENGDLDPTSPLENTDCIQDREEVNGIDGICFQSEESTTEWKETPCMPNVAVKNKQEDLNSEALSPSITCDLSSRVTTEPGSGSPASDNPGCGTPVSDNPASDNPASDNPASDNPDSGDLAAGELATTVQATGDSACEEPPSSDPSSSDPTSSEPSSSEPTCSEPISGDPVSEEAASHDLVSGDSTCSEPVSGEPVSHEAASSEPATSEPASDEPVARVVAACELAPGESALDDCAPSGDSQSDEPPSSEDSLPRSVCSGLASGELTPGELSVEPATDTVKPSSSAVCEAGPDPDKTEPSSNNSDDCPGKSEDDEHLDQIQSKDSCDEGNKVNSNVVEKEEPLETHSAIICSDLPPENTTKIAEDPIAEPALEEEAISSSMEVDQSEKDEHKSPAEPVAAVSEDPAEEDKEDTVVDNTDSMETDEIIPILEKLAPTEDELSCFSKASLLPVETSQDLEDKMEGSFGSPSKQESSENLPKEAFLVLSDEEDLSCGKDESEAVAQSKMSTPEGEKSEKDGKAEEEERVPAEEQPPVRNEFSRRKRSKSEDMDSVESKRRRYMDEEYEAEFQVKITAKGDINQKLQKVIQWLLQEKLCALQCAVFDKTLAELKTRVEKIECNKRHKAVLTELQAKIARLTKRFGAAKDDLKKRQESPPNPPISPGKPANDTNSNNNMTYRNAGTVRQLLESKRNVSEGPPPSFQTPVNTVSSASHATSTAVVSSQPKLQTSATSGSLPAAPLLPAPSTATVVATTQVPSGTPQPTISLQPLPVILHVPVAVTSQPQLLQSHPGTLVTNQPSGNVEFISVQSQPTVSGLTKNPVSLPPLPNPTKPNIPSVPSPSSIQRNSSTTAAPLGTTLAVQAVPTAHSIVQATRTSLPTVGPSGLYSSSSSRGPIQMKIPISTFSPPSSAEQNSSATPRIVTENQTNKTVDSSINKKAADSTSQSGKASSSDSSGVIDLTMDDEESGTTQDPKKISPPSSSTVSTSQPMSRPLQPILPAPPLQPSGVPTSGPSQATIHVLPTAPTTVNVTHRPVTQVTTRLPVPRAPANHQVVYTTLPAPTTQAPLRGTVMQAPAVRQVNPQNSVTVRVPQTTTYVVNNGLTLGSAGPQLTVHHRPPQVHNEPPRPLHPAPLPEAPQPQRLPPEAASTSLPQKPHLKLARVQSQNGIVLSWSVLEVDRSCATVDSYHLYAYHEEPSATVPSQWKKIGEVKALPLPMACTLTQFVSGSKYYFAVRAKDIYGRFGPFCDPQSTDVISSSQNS
The test is described as above.

“G9a (co-transfected into HEK293T cells) (from UniProt Q9Z148 1-1263) (enzyme)”: the binding result is listed as “binds” in test [1] and “no binding” in test [2].

Source of the values: publication PMC6172828.
